Laboratory results taken from PubChem BioAssay AID2202238 (Ras Initiative Chemistry Research Team, Frederick National …, 2025).
The other results are listed elsewhere or left out. The main result of the screen is listed elsewhere. These columns were measured beside it and carry no call.

Molecular target: GTPase KRas (Homo sapiens) (UniProt P01116)
Assay: Fragment capture on engineered cysteines, share of protein labelled (AID 2202238)
Parameters: protein at 5 µM with 500 µM competing thiol for 1.5 h
Conditions: KRAS G12D cysteine mutants, disulfide tethering, MALDI-TOF labeling, stronger effect = higher value, fragment at 500 µM
[1] = measured here: G75C mutant labeling
[2] = measured here: H94C mutant labeling
[3] = measured here: I36C mutant labeling
[4] = measured here: L120C mutant labeling
[5] = measured here: M67C mutant labeling
[6] = measured here: M72C mutant labeling
[7] = measured here: N86C mutant labeling
[8] = measured here: P121C mutant labeling
[9] = measured here: S122C mutant labeling
[10] = measured here: S136C mutant labeling
[11] = measured here: G60C mutant labeling
[12] = measured here: N26C mutant labeling

Chain of UniProt P01116 (P01116 whole entry, looked up, the tested form may be a part): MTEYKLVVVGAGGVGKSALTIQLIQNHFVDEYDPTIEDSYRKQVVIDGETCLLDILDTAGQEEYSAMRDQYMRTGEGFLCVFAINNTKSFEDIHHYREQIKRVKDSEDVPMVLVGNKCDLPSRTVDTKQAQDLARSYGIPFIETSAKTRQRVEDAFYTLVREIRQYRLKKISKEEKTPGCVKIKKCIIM

Structure (SMILES)	percent labeling [1] [%]	percent labeling [2] [%]	percent labeling [3] [%]	percent labeling [4] [%]	percent labeling [5] [%]	percent labeling [6] [%]	percent labeling [7] [%]	percent labeling [8] [%]	percent labeling [9] [%]	percent labeling [10] [%]	percent labeling [11] [%]	percent labeling [12] [%]
O=C(CCS)Nc1cccc(-c2n[nH]c3c2CCC3)c1	23.3	28.2	34.5	26.5	28.5	70.1	31.5	20.6	14.1	38.8	–	–
O=C(NCCS)c1cccc2[nH]c(C(F)F)nc12	43.6	27.8	15.3	26.7	21.4	79.5	13.8	14.2	14.5	32.9	26	30
O=C(NCCS)C1CCCCC1c1nc2ccccc2[nH]1 (centres undefined)	21.7	33.2	30.1	30.7	39.2	29.1	29.9	23	24.4	35.3	44.5	38.9
Cc1c(C(=O)NCCS)cccc1N1CCNC1=O	12.4	39.5	30.3	36.3	36.9	20	28.8	38.5	31.3	50.5	28.6	31.7
O=C(CCS)NCC1(O)CC2CCC(C2)C1 (centres undefined)	11.9	31.8	25.5	35.1	35.5	34.9	27.3	39.2	39	51.7	–	–
O=C(NCCS)c1cc2c(OC(F)F)cccc2[nH]1	10.3	22.3	17.5	20.3	11.9	54.4	14.4	16.9	13.4	27	34	20.8
O=C(CCS)NC1CC(O)(C2(O)CCC2)C1 (centres undefined)	0	27	35.6	24.8	26.5	12	12.2	34.5	32.6	42.7	–	–
Cc1oc2[nH]c(=O)n(-c3ccccc3)c(=O)c2c1C(=O)NCCS	9.7	25.2	7.5	22	18.9	14.3	10	14.4	24.3	20.8	20.6	15.4
O=C(CCc1c(-c2ccccc2)[nH]c2ccc(F)cc12)NCCS	15.5	19.1	13	16.2	16.5	46.6	6.1	17	4.7	33.2	44.2	16.9
CNC(=O)c1cccc(NC(=O)CCS)c1C	9.5	26.1	27.4	28	26.6	16	23.3	28.8	31.8	43.8	–	–
O=C(Cc1coc2cc(Cl)ccc12)NCCS	19.5	20.1	12.4	30	13.6	52.2	14	17.9	10.8	19.6	42.2	34.5
Cn1c(C(F)(F)F)nc2cncc(C(=O)NCCS)c21	16.3	32.6	28.9	30.1	34.2	33.4	24.5	33.4	29.6	42.2	40.4	41.5
O=C(CCS)N1CCCN(c2ccc(C(F)(F)F)cn2)CC1	22.6	57.4	35.5	25.3	54.1	44.8	31	29.5	26.8	54.6	–	–
Cc1nc2cc(NC(=O)CCS)ccc2n1C	11.8	26.2	26.6	26.6	29.3	27.8	26.2	23.1	36.4	42.1	–	–
CC(C)N1Cc2cccc(NC(=O)CCS)c2C1	16.9	34.8	39.1	23.7	41.3	25.1	18.3	27.4	29.8	49.3	–	–
O=C(CCS)Nc1ccc(F)cc1OCC(F)F	13.5	41.2	33.2	32.3	34.7	26.1	24.8	29	28.5	52.3	–	–
CCOc1cc(NC2CCN(C(=O)CCS)CC2)ncn1	14.9	32.9	41.8	32.8	43.3	25.2	16.5	34	27.5	49.3	–	–
O=C(CCS)NCCOc1cn[nH]c1C(F)(F)F	15	41.1	42.7	35.1	53.4	43.7	45.6	36.5	39.2	56.2	–	–
Cn1cc(NC(=O)CCS)c(=O)n(C)c1=O	15.7	33.8	40.7	29	34.5	28.3	22.3	36.8	32.2	43.9	–	–
Cc1c(C)c2c(c(C)c1O)CCC(C)(C(=O)NCCS)O2 (centres undefined)	19.7	21.4	14.2	14.7	21.4	27.2	6.3	14.9	12.7	24.2	34.7	26.8
O=C(NCCS)c1cc2c(Cl)cccn2n1	22.7	22.2	13.6	22.6	18.8	53	9.8	20.1	12.9	33	35.8	31.9
Cc1ccc(C)c(-n2cnc3cc(C(=O)NCCS)ccc32)c1	9.8	13.8	6.9	11.7	10.6	39	11.6	12.1	6.7	11.7	39.8	28.2
Cc1nn(C)c(C)c1CC(C)C(=O)NCCS (centres undefined)	10.3	28	25.6	19.6	23.9	11.9	19.4	32.8	26.5	38.2	29.3	26.4

Structure (SMILES)	percent labeling [1] [%]	percent labeling [2] [%]	percent labeling [3] [%]	percent labeling [4] [%]	percent labeling [5] [%]	percent labeling [6] [%]	percent labeling [7] [%]	percent labeling [8] [%]	percent labeling [9] [%]	percent labeling [10] [%]	percent labeling [11] [%]	percent labeling [12] [%]
O=C(NCCS)c1cc(-c2ccccc2)nc2cc(Br)ccc12	14.9	8.2	6.9	4.9	4	54.2	0	9.7	2.3	18.1	35	23.6
CC(C)c1cccc(-c2ccc(C(=O)NCCS)o2)c1	22.1	15.5	8.8	18.5	9.5	38.1	10.5	19.4	10.9	16.7	33.5	20.6
CCOc1ccccc1-c1cccc(C(=O)NCCS)c1	11.5	12.6	8.9	16.7	11.4	31.5	10	13.2	7.8	18.4	21.5	28.5
Cc1cc(CCCC(=O)NCCS)c(C)s1	15.5	20	10.4	22.7	14.1	27.5	8.1	16.7	13.7	28.8	35.2	26.4
O=C(CCS)NC1CCC(N2CCCC2=O)CC1 (centres undefined)	7.9	33.7	34.9	29.7	34.4	20.6	25.1	34.1	36.7	51.6	–	–
O=C(NCCS)C1(N2CCOCC2)CCCC1	14.9	32.5	23.3	24.3	32.1	13.6	28	30.6	31.2	38.2	35.2	33.1
CC(=NOCC(=O)NCCS)c1ccc2c(c1)OCO2	15.2	23.5	16.1	24.5	20.3	28.3	14.9	17.3	16.4	23.7	36.6	32.6
O=C(NCCS)C1CCCCC1c1nc2ccccc2s1 (centres undefined)	16.2	25.9	24.3	24.1	26.8	22.1	13	21.1	16	31.6	51.7	30.9
O=C(NCCS)c1ccc(-c2nc3ccccc3s2)o1	11.9	15.9	9.4	15.9	10.4	30.3	11.1	12.2	7.3	14.4	23	26.2
O=C(NCCS)c1c(Br)ccc(F)c1OC(F)(F)F	18	21	12.7	18.6	14.5	23.3	10.1	15.6	12.2	20.8	34.9	22
Cc1cc(C(=O)NCCS)n(-c2ccccc2)n1	5.9	37.5	19.8	31.6	9.2	34.4	14.9	25.7	15.3	33.2	38.2	37.2
O=C(CC(n1cccn1)C(F)(F)F)NCCS (centres undefined)	10.2	29.4	26.8	38.7	26.7	13.5	25.8	31.7	29.3	35.9	39.3	29.8
O=C(CCS)N1CCC(c2ccc3cccnc3n2)CC1	13.2	31.8	40.4	37.6	44.3	30.9	27.9	31.2	23.4	50	–	–
CC(C)Cn1[nH]c(CC(=O)NCCS)cc1=O	0	15.9	11.1	35.5	15.8	0	7.4	25.4	11.5	18.6	11.4	20.5
O=C(Cn1cnc2sc(-c3ccccc3)cc2c1=O)NCCS	0	0	4.9	10.5	5.3	4.2	3.4	0	0	3.2	3.6	7.7
Cc1[nH]ncc1C(=O)NCCS	13.5	27.9	21.9	32.7	26.8	29.4	24.8	25.7	27.4	34.5	25	33.5
O=C(CCS)NCc1nocc1-c1ccc(Cl)cc1	18.7	65.1	43.6	23.9	36.9	55.6	25.7	29.5	24.9	50	–	–
Cc1nnc2ccc(C(=O)NCCS)cc2c1C	6.4	5.9	3.9	16.3	10.9	7.8	4	3.6	4.8	18.8	14.2	32.8
O=C(NCCS)[C@@H]1OCCC[C@@H]1c1ccccc1	14.8	28.8	20.6	32.5	21.1	34.7	19.1	24.9	22.4	42.9	47.2	32.2
CCn1c(=O)[nH]c2cc(C(=O)NCCS)ccc21	27	31.2	26.5	31.7	31.9	54.3	26.9	25.7	25.1	45.5	30.4	54.8
O=C(COc1ccc(Br)cc1Cl)NCCS	17.5	16.5	9.6	13.6	9.7	13.5	10.1	14.1	6.3	12.5	49.5	28
CC(=O)NCc1ccc(C(=O)NCCS)s1	15.1	33.3	23.8	39.5	29.7	28.4	31.8	28.1	33.3	42.6	37.5	42.9
Cc1ccc(C(=O)NC(CC(=O)NCCS)c2ccccc2)cc1 (centres undefined)	11	9.1	11.5	10.2	11.2	11.5	3.7	11.5	5.7	13.3	18.8	15.5
